Out of some 310,000 compounds screened, about 2,200 (0.71%) showed an effect of 50% or more. The effect is printed as a negative number. The list shows a part of the results.
biological target: human ether-à-go-go-related gene (hERG) potassium channel (human, UniProt Q12809); assay: primary screen, population patch clamp on CHO cells stably expressing hERG
Sequence (Q12809 whole entry, looked up): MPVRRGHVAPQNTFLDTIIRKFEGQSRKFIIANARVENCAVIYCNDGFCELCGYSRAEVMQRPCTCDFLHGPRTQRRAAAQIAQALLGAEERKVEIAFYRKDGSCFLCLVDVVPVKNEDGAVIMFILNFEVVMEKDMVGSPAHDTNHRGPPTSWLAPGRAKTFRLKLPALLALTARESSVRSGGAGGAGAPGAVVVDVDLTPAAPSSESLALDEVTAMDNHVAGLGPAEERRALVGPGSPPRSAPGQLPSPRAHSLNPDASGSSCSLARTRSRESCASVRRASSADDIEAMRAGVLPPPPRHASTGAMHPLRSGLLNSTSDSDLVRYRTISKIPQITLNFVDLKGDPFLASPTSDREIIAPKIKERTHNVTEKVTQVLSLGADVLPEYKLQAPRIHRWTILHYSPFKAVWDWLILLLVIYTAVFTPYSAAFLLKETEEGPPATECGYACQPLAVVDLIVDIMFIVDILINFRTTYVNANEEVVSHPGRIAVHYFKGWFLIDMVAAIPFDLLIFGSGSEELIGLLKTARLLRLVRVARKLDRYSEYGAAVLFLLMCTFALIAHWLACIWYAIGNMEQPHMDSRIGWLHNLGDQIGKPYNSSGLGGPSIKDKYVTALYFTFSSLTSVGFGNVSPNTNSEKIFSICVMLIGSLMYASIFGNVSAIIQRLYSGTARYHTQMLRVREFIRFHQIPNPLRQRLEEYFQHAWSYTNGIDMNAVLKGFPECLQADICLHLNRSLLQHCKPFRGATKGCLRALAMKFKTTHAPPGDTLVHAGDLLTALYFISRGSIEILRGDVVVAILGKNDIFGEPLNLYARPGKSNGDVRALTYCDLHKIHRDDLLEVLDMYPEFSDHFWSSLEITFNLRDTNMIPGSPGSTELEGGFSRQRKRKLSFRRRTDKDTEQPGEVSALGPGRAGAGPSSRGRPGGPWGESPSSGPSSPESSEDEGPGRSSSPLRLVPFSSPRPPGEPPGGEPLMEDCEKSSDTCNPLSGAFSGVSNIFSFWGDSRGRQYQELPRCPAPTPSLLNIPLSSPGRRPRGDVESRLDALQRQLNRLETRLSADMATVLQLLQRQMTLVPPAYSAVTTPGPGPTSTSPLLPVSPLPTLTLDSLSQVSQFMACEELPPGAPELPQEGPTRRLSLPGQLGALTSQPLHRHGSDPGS

Row | Structure (SMILES) | hERG current change (%, negative = inhibition) at 1uM
1 | COc1cc(OC)c(OC)cc1/C=N/n1c(COc2ccccc2)n[nH]c1=S | 10.7%
2 | COc1ccc(-n2c(-c3ccc(Br)cc3)n[nH]c2=S)cc1 | 14%
3 | CCC(C)NC(=O)Cn1cnc([N+](=O)[O-])c1 (stereo not shown) | 11.2%
4 | COc1cc2cc(C)c3nnc(SCC(=O)Nc4cc(C)on4)n3c2cc1OC | 12.4%
5 | CCOC(=O)Nc1c(C(=O)OC)[nH]c2cccc(OC)c12 | 13.7%
6 | COc1ccc(CN(C(=O)c2snc(C(N)=O)c2N)C(C(=O)NC2CCCC2)c2ccco2)cc1 (stereo not shown) | 2.77%
7 | Cc1n(N)c2ccccc2[n+]1CC(=O)c1ccccc1.[Br-] | 7.93%
8 | COc1ccc(C(=O)OC(C)CN2CCOCC2)cc1OC.Cl (stereo not shown) | 8.2%
9 | CC(=O)Nc1nnc(SCc2cc(=O)c(OC(=O)c3ccccc3)co2)s1 | 10.5%
10 | COc1ccc(CCNC(=O)c2ccc(Cl)c(S(=O)(=O)N(C)c3ccccc3)c2)cc1 | 7.95%
11 | COc1ccc(/C=C(/NC(=O)c2ccco2)C(=O)NCCc2ccccc2)cc1 | -7.33%
12 | COc1cc(NC(=O)c2ccco2)ccc1NC(=O)C(C)C | -0.252%
13 | CC(=O)Nc1cccc(Cl)c1C(=O)O | 2.29%
14 | Br.CN1CCc2cc3c(c4c2[C@H]1[C@H](O)c1ccccc1-4)OCO3 | 6.95%
15 | CN(C(=O)CSc1nc2cc([N+](=O)[O-])ccc2n1-c1ccc(F)cc1)C1CCS(=O)(=O)C1 (stereo not shown) | 8.63%
16 | C=CCn1c(SCC2=C(C(=O)OCC)C(C)NC(=O)N2)nnc1C1CCCCC1 (stereo not shown) | 14.8%
17 | CCN(Cc1ccccc1)S(=O)(=O)c1ccc(OC)c2ncccc12 | -4.51%
18 | O=C(COc1ccc(Br)cc1)N1CCN(C2CCCC2)CC1 | -42.1%
19 | C/C(=N\Nc1cc(C)nc(-c2ccccc2O)n1)c1ccccc1O | 17.1%
20 | CCOC(=O)COc1ccc(S(=O)(=O)NCc2ccncc2)cc1 | 8.78%
21 | O=C(O)c1cnc(-c2ccccc2)nc1Oc1ccccc1 | 6.11%
22 | O=C1NCC(O)=C1C=NCCCO | 16.3%
23 | CSc1nnc(C(C)(C)C)c(=O)n1/N=C/c1ccccc1O | 5.91%
24 | CC(/C=N/NC(=O)c1nnn(-c2nonc2N)c1C)=C\c1ccccc1 | 12.2%
25 | COc1ccc(C)cc1S(=O)(=O)N1c2ccccc2CC1C (stereo not shown) | -8.25%

From PMC4336329 (PLoS ONE, 2015)
